Test results published in the supplement of paper PMC8007513.
Where a name gives a salt, the structure may show the parent alone. ± gives the standard error. Out of some 1,300 compounds screened, about 75 (6%) showed an effect of 50% or more. This is one part of the list.

Tested on: Trichoderma virens ATCC 9645
Experiment: growth yield (OD600) relative to untreated control; higher = less growth inhibition
Settings: compound concentration: 100 uM
Outline: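 Library compounds (100 μM final), with or without a co-applied biocide (200 ng ml^−1), were added to 100 μl aliquots of Trichoderma virens ATCC 9645 spores at 15,000 spores ml^−1 in potato dextrose broth. Cultures were grown at 30 °C in 96-well plates, and OD600 was measured at 40 h and 72 h. Each growth value is a mean of duplicate screens, expressed relative to the control with neither agent.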

Structure (SMILES) | growth yield (40 h) [%] | growth yield (72 h) [%]
CC1(C)S[C@@H]2[C@H](NC(=O)[C@H](N)c3ccccc3)C(=O)N2[C@H]1C(=O)O [Ampicillin trihydrate] | 105 ± 3.5 | 108 ± 2.6
O=c1n(CCCN2CCN(c3cccc(Cl)c3)CC2)nc2ccccn12 [Trazodone hydrochloride] | 97.85 ± 0.95 | 98.48 ± 0.1
CO[C@@H]1[C@@H](O[C@@H]2O[C@H](C)[C@@H](O[C@H]3C[C@@](C)(O)[C@@H](OC(=O)CC(C)C)[C@H](C)O3)[C@H](N(C)C)[C@H]2O)[C@@H](CC=O)C[C@@H](C)[C@@H](O)/C=C/C=C/C[C@@H](C)OC(=O)C[C@H]1OC(C)=O [Josamycin] | 106.4 ± 0.64 | 100.58 ± 0.1
CC(=O)CC(c1ccccc1)c1c(O)c2ccccc2oc1=O (centres undefined) [Warfarin] | 90.9 ± 3.5 | 89.1 ± 4
CCN(CC)CC(=O)Nc1c(C)cccc1C [Lidocaine hydrochloride] | 104 ± 2.7 | 103 ± 3.2
c1ccc2c(CC3=NCCN3)cccc2c1 [Naphazoline hydrochloride] | 101 ± 2.4 | 100
CC(=O)OCC(=O)[C@@]12OC(C)(C)O[C@@H]1C[C@H]1[C@@H]3C[C@H](F)C4=CC(=O)C=C[C@]4(C)[C@@]3(F)[C@@H](O)C[C@@]12C [Fluocinonide] | 90.1 ± 2.1 | 89.6 ± 1.1
C=CC1=C(C(=O)O)N2C(=O)[C@@H](NC(=O)/C(=N\O)c3csc(N)n3)[C@H]2SC1 [Cefdinir] | 97.5 ± 3.5 | 95.2 ± 3.1
Cc1cn([C@H]2C=C[C@@H](CO)O2)c(=O)[nH]c1=O [Stavudine] | 103 ± 2.4 | 98.8 ± 3.1
CC(=O)NS(=O)(=O)c1ccc(N)cc1 [Sulfacetamide sodic hydrate] | 102 ± 1.1 | 100.6 ± 0.32
COc1cccc2c1C(=O)c1c(O)c3c(c(O)c1C2=O)C[C@@](O)(C(C)=O)C[C@@H]3O[C@H]1C[C@H](N)[C@H](O)[C@H](C)O1 [Daunorubicin hydrochloride] | 118.8 ± 0.32 | 116 ± 1.5
Cc1c(NC(=O)c2cccnc2)c(=O)n(-c2ccccc2)n1C [Nifenazone] | 101 ± 1.6 | 102 ± 1.4
CS(=O)(=O)OCCCCOS(C)(=O)=O [Busulfan] | 103.2 ± 0.64 | 105 ± 2
CC(C)NC[C@@H](O)COc1ccc(CC(N)=O)cc1 [(R)-(+)-Atenolol] | 102 ± 4 | 97.8 ± 1.8
NS(=O)(=O)c1cc2c(cc1C(F)(F)F)NCNS2(=O)=O [Hydroflumethiazide] | 102 ± 2.4 | 100 ± 3.1
CC[C@@H]1C(=O)OC[C@@H]1Cc1cncn1C [Pilocarpine nitrate] | 98.2 | 98.6
NC[C@@H]1O[C@@H](O[C@H]2[C@H](O)[C@@H](O[C@H]3O[C@H](CO)[C@@H](O)[C@H](N)[C@H]3O)[C@H](N)C[C@@H]2N)[C@@H](O)[C@H](O)[C@H]1O [Kanamycin A sulfate] | 100 ± 1.1 | 102 ± 2.1
COC(=O)C1=C(C#N)NC(C)=C(C(=O)OC(C)C)C1c1cccc([N+](=O)[O-])c1 (centres undefined) [Nilvadipine] | 109 ± 6.8 | 103 ± 5.6
CC1CC(OC(=O)c2ccccc2O)CC(C)(C)C1 (centres undefined) [Homosalate] | 109 ± 3.2 | 105.8 ± 0.32
C[C@H](CCC(=O)O)[C@H]1CC[C@H]2[C@@H]3[C@@H](O)C[C@@H]4C[C@H](O)CC[C@]4(C)[C@H]3CC[C@]12C [Urosiol] | 102 ± 4.9 | 94.4 ± 2.3
C#C[C@]1(O)CC[C@H]2[C@@H]3CCC4=CCCC[C@@H]4[C@H]3CC[C@@]21C [Lynestrenol] | 84.7 ± 6.2 | 87 ± 4.2

Structure (SMILES) | growth yield (40 h) [%] | growth yield (72 h) [%]
O=C(CCCN1CCN(c2ccccn2)CC1)c1ccc(F)cc1 [Azaperone] | 105 ± 7 | 99.2 ± 4.6
CN1CCC(=C2c3ccccc3Sc3ccccc32)CC1 [Pimethixene maleate] | 85.77 ± 0.64 | 95.2 ± 1.9
Nc1c2ccccc2nc2ccccc12 [Aminacrine] | 98.64 ± 0.48 | 96.9 ± 2.9
N[C@@H](Cc1cc(I)c(Oc2ccc(O)c(I)c2)c(I)c1)C(=O)O [Liothyronine] | 91.3 ± 3.3 | 97.3 ± 1.1
CN1CCN(C(c2ccccc2)c2ccccc2)CC1 [Cyclizine hydrochloride] | 106.9 ± 0.48 | 103.6 ± 0.63
OCCN(CCO)c1nc(N2CCCCC2)c2nc(N(CCO)CCO)nc(N3CCCCC3)c2n1 [Dipyridamole] | 65 ± 1.1 | 63.87 ± 0.32
O=C(O)c1ccccc1C(=O)Nc1ccc(S(=O)(=O)Nc2nccs2)cc1 [Phthalylsulfathiazole] | 102 ± 3.8 | 99.6 ± 2.3
CN(c1nccc(=O)[nH]1)C1CCN(c2nc3ccccc3n2Cc2ccc(F)cc2)CC1 [Mizolastine] | 94.5 ± 2.4 | 96 ± 2.6
OC(CNCC(O)C1CCc2cc(F)ccc2O1)C1CCc2cc(F)ccc2O1 (centres undefined) [Nebivolol hydrochloride] | 95 ± 16 | 114 ± 14
CC[C@H](C)[C@H](N)C1=N[C@H](C(=O)N[C@@H](CC(C)C)C(=O)N[C@H](CCC(=O)O)C(=O)N[C@H](C(=O)N[C@H]2CCCCNC(=O)[C@H](CC(N)=O)NC(=O)[C@@H](CC(=O)O)NC(=O)[C@H](Cc3cnc[nH]3)NC(=O)[C@@H](Cc3ccccc3)NC(=O)[C@H]([C@@H](C)CC)NC(=O)[C@@H](CCCN)NC2=O)[C@@H](C)CC)CS1 [Bacitracin] | 114 ± 2.2 | 110 ± 1.3
CN1CCN(CCCN2c3ccccc3Sc3ccc(C(F)(F)F)cc32)CC1 [Trifluoperazine dihydrochloride] | 20 ± 0.95 | 63.35 ± 0.42
COc1ccc(OC)c(C(O)CNC(=O)CN)c1 (centres undefined) [Midodrine hydrochloride] | 101.8 ± 0.16 | 105 ± 0.73
CN(C)CCN1C(=O)c2ccccc2N(C)c2ccccc21 [Dibenzepine hydrochloride] | 101 ± 1.8 | 105 ± 3
CN(C(=O)C(Cl)Cl)c1ccc(OC(=O)c2ccco2)cc1 [Diloxanide furoate] | 91.3 ± 4 | 91.1 ± 2.4
Nc1ccn([C@H]2CC[C@@H](CO)O2)c(=O)n1 [Zalcitabine] | 102 ± 1.4 | 95.3 ± 1.4
CC(=O)c1ccc2c(c1)N(CCCN(C)C)c1ccccc1S2 [Acetopromazine maleate salt] | 109 ± 5.9 | 111 ± 4.1
CN(C)CCOC(C)(c1ccccc1)c1ccccn1 (centres undefined) [Doxylamine succinate] | 98.2 ± 1.6 | 96.5 ± 1.1
Oc1c(I)cc(Cl)c2cccnc12 [Clioquinol] | 18.3 ± 7.8 | 12.9 ± 5.3
CC(C)(C#N)c1cc(Cn2cncn2)cc(C(C)(C)C#N)c1 [Anastrozole] | 96.3 ± 1.3 | 91 ± 1.7
C(=C\c1ccccc1)/CN1CCN(C(c2ccccc2)c2ccccc2)CC1 [Cinnarizine] | 86.1 ± 4.1 | 104 ± 1.6
O=C(C1CCCCC1)N1CC(=O)N2CCc3ccccc3C2C1 (centres undefined) [Praziquantel] | 85.5 ± 2.9 | 86.1 ± 3.9

Structure (SMILES) | growth yield (40 h) [%] | growth yield (72 h) [%]
CN1CCC(=C2c3ccccc3CCc3cccnc32)CC1 [Azatadine maleate] | 107 ± 7.9 | 104 ± 4.2
Nc1nc2ccc(OC(F)(F)F)cc2s1 [Riluzole hydrochloride] | 52.3 ± 1.1 | 54.2 ± 1.1
COc1ccc2c(c1)c(CC(=O)O)c(C)n2C(=O)c1ccc(Cl)cc1 [Indomethacin] | 86.6 ± 3.3 | 92.7 ± 7.1
CC(C)(C)NCC(O)COc1cccc2c1CCC(=O)N2 (centres undefined) [Carteolol hydrochloride] | 106 ± 3.3 | 106 ± 1.3
C=C1c2c(Cl)ccc(O)c2C(=O)C2=C(O)[C@]3(O)C(=O)C(C(N)=O)=C(O)[C@@H](N(C)C)[C@@H]3[C@@H](O)[C@H]12.O=C(O)c1cc(S(=O)(=O)O)ccc1O [Meclocycline sulfosalicylate] | 96.1 ± 12 | 91.5 ± 6.3
CC(=O)NCCCS(=O)(=O)O [Acamprosate calcium] | 98.32 ± 0.48 | 95.9 ± 1.7
CCOC(=O)O[C@]1(C(=O)COC(=O)CC)CC[C@H]2[C@@H]3CCC4=CC(=O)C=C[C@]4(C)[C@H]3[C@@H](O)C[C@@]21C [Prednicarbate] | 118 ± 3 | 114 ± 2.8
CC(C(=O)O)c1ccc2c(c1)[nH]c1ccc(Cl)cc12 (centres undefined) [Carprofen] | 40.7 ± 15 | 88.9 ± 8
CCCCc1cc2ccccc2c(OCCN(C)C)n1 [Dimethisoquin hydrochloride] | 97.4 ± 4.3 | 97.3 ± 4.4
Cc1cccc(C)c1NC(=O)C(C)N (centres undefined) [Tocainide hydrochloride] | 106 ± 7.2 | 102 ± 4
Cc1ccccc1C(=O)Nc1ccc(C(=O)N2CCCC(O)c3cc(Cl)ccc32)c(C)c1 (centres undefined) [Tolvaptan] | 110 ± 7.6 | 110 ± 2.1
CN(C)C(=O)C(CCN1CCC(O)(c2ccc(Cl)cc2)CC1)(c1ccccc1)c1ccccc1 [Loperamide hydrochloride] | 98.48 ± 0.32 | 105 ± 1.3
O=C(OCC(O)CO)c1ccccc1Nc1ccnc2cc(Cl)ccc12 (centres undefined) [Glafenine hydrochloride] | 97.1 ± 1.4 | 98.3 ± 1.8
CC(C(=O)O)c1ccc(-c2ccccc2)c(F)c1 (centres undefined) [Flurbiprofen] | 72.9 ± 3 | 86.5 ± 3.9
C[C@H]1O[C@@H](O[C@H]2[C@@H](O)C[C@H](O[C@H]3[C@@H](O)C[C@H](O[C@H]4CC[C@@]5(C)[C@H](CC[C@@H]6[C@@H]5C[C@@H](O)[C@]5(C)[C@@H](C7=CC(=O)OC7)CC[C@]65O)C4)O[C@@H]3C)O[C@@H]2C)C[C@H](O)[C@@H]1O [Digoxin] | 102.8 ± 0.16 | 103.2 ± 0.84
COc1cc([S+](C)[O-])ccc1-c1nc2cccnc2[nH]1 (centres undefined) [Sulmazole] | 99.4 ± 2.2 | 98 ± 1.7
Nc1nc(CC(=O)Nc2ccc(CCNC[C@H](O)c3ccccc3)cc2)cs1 [Mirabegron] | 100 ± 8.6 | 96.8 ± 6.6
NC[C@@H]1O[C@H](O[C@H]2[C@@H](O)[C@H](O[C@@H]3[C@@H](O)[C@H](N)C[C@H](N)[C@H]3O[C@H]3O[C@H](CO)[C@@H](O)[C@H](O)[C@H]3N)O[C@@H]2CO)[C@H](N)[C@@H](O)[C@@H]1O [Paromomycin sulfate] | 102.6 ± 0.32 | 96.59 ± 0.32
COc1ccccc1OCC(O)CO (centres undefined) [Guaifenesin] | 102 ± 6.3 | 97.1 ± 2.7
CC(=O)[C@H]1CC[C@H]2[C@@H]3C=CC4=CC(=O)CC[C@@]4(C)[C@@H]3CC[C@]12C [Dydrogesterone] | 78.3 ± 1.1 | 79.9 ± 2.1
